The supplement of paper PMC3334620
Over roughly 33,000 sequences, “E-score (-0.5 to 0.5)” has its median near -0.013; the highest 2% begin near 0.3. Some of the results follow.

These sequences were tested against T1, Msn1 (UniProt P22148) (assay: PBM E-score (8-mer binding enrichment) (E-score (-0.5 to 0.5)); higher = stronger / more preferred TF binding; most listed sequences are background and not binding sites). Conditions: protein concentration: 200 nM; construct: GST-full length.
T1 sequence: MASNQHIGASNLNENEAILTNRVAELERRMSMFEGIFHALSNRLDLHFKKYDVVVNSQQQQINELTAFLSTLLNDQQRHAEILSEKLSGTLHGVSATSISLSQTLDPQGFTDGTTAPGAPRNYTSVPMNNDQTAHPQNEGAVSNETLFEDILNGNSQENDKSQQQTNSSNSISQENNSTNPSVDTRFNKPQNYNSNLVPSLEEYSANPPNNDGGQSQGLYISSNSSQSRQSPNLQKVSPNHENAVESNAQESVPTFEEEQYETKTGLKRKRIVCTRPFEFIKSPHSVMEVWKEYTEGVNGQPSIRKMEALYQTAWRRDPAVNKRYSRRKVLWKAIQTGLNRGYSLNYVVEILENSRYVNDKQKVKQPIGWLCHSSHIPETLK
Method: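 Universal 'all 10-mer' protein binding microarrays (Agilent AMADID 015681) probed with GST-tagged S. cerevisiae TFs (full-length or DBD) made by in vitro transcription/translation (PURExpress), about 100-200 nM. Bound TF was detected with fluorescent anti-GST. Each ungapped 8-mer (which stands for itself and its reverse complement) is scored by the PBM enrichment score (E-score), a modified Wilcoxon-Mann-Whitney statistic from -0.5 to +0.5, computed with the Universal PBM Analysis Suite. Scale: above 0.35 generally sequence-specific binding.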
In the case of AGGGCAGG, the “PBM E-score” value is reported as -0.0906. For CGGGAGGA, the “PBM E-score” value was -0.0135. In the case of ATCTTATG, the “PBM E-score” value is reported as 0.0986. With ACCTGGCA the “PBM E-score” value was -0.0445. AAATTTCA was tested, and the “PBM E-score” value was -0.0065. With ACTGGGTA the “PBM E-score” value was -0.0457. In the case of AATATCGT, the “PBM E-score” value is reported as 0.131. In the case of GTAGACCA, the “PBM E-score” value is reported as -0.206. With CGTTTCAA the “PBM E-score” value was 0.185. ATTGGATA was tested, and the “PBM E-score” value was 0.0185. For TGCTAACA, the “PBM E-score” value was -0.0311. In the case of ACCAGTAT, the “PBM E-score” value is reported as 0.0101. GGGCACCC was tested, and the “PBM E-score” value was -0.367. For TACCACTA, the “PBM E-score” value was -0.0138. In the case of AAGAAACA, the “PBM E-score” value is reported as 0.181. CAGGACAG was tested, and the “PBM E-score” value was 0.259. With ATCAAATC the “PBM E-score” value was -0.0029. For GAGGCCAA, the “PBM E-score” value was -0.224. CCGATTAC was tested, and the “PBM E-score” value was -0.0406. In the case of AATTGAGA, the “PBM E-score” value is reported as 0.114. With CCCTTCAA the “PBM E-score” value was -0.185. With AAACTCGT the “PBM E-score” value was 0.0896. For AAATCGGT, the “PBM E-score” value was 0.0247. TAGGAGAA was tested, and the “PBM E-score” value was -0.148. ACTCGAGC was tested, and the “PBM E-score” value was 0.0838. With GATTCTCC the “PBM E-score” value was -0.142. For TATGTGGA, the “PBM E-score” value was 0.0929. In the case of ATGACCGG, the “PBM E-score” value is reported as -0.0236. AGTATTTC was tested, and the “PBM E-score” value was 0.113. CCCCTGAC was tested, and the “PBM E-score” value was -0.118. With AGCAGGAC the “PBM E-score” value was 0.194. GTGGATTA was tested, and the “PBM E-score” value was 0.0377. With CACTCAGA the “PBM E-score” value was -0.0156. With CAGTTAGC the “PBM E-score” value was -0.17. AAACTGAG was tested, and the “PBM E-score” value was -0.0786. With AACGATCA the “PBM E-score” value was -0.175. In the case of GTGGCCGA, the “PBM E-score” value is reported as -0.118. In the case of ACTAGGAT, the “PBM E-score” value is reported as -0.0469. For CCCGTACC, the “PBM E-score” value was -0.147. With AAGGGGAA the “PBM E-score” value was -0.135. With GCACCCAC the “PBM E-score” value was -0.091. ATAAGCGG was tested, and the “PBM E-score” value was -0.0354. In the case of AATCTGGG, the “PBM E-score” value is reported as -0.203. AACAGACT was tested, and the “PBM E-score” value was 0.132. For AGCTAGGA, the “PBM E-score” value was -0.021. In the case of CCCCGAAC, the “PBM E-score” value is reported as -0.00181. CAGTGGTA was tested, and the “PBM E-score” value was -0.194. AAGACAGT was tested, and the “PBM E-score” value was 0.0956. AGTAGAAG was tested, and the “PBM E-score” value was -0.0712. With ACAGGGGC the “PBM E-score” value was -0.326. With GGGGAAGA the “PBM E-score” value was -0.223. In the case of ATCGCTAG, the “PBM E-score” value is reported as 0.022. In the case of TGCGAACA, the “PBM E-score” value is reported as 0.0208. AAAATGAG was tested, and the “PBM E-score” value was 0.116. In the case of AATGACGG, the “PBM E-score” value is reported as 0.0318. In the case of CACAGGGG, the “PBM E-score” value is reported as -0.389. CACTGTGC was tested, and the “PBM E-score” value was -0.00552. In the case of CCTGTCGA, the “PBM E-score” value is reported as -0.133. CTGGTAAC was tested, and the “PBM E-score” value was -0.0643. CTTCCCTA was tested, and the “PBM E-score” value was -0.129. With ACTCCAAA the “PBM E-score” value was -0.0742. ACCATCCC was tested, and the “PBM E-score” value was -0.19. In the case of AGTTGCCA, the “PBM E-score” value is reported as -0.0802. With ACCACACC the “PBM E-score” value was -0.156. With CTGCTAAC the “PBM E-score” value was -0.128. With GGGACCCC the “PBM E-score” value was -0.339. AAGGAGGT was tested, and the “PBM E-score” value was -0.268. For AGCCGCTG, the “PBM E-score” value was -0.132. With CACCTTCA the “PBM E-score” value was -0.115. ACCCGTGA was tested, and the “PBM E-score” value was -0.129. For ACGGAGTG, the “PBM E-score” value was -0.0682. For AGCGCCAT, the “PBM E-score” value was -0.266. In the case of CAAGTACC, the “PBM E-score” value is reported as 0.0476. In the case of AGGTCGGC, the “PBM E-score” value is reported as -0.119. With AGATCCCT the “PBM E-score” value was -0.102. In the case of AACTCTAG, the “PBM E-score” value is reported as 0.0199. CTCCTCGC was tested, and the “PBM E-score” value was -0.194. ATATGCGG was tested, and the “PBM E-score” value was 0.0743. With AGCCGCTC the “PBM E-score” value was -0.0659. In the case of CCATAAGA, the “PBM E-score” value is reported as 0.127. For CTCATGAG, the “PBM E-score” value was -0.0174. GAACTAGC was tested, and the “PBM E-score” value was 0.0138. GCTTCAGA was tested, and the “PBM E-score” value was -0.113. ATCCAAAA was tested, and the “PBM E-score” value was 0.15. For GGTTTACA, the “PBM E-score” value was 0.00093. In the case of AAGGCCTG, the “PBM E-score” value is reported as -0.191. For AGCGGGGC, the “PBM E-score” value was -0.0893. With ACCATACG the “PBM E-score” value was 0.00344. AGCGAATG was tested, and the “PBM E-score” value was -0.207. ATTAGCTG was tested, and the “PBM E-score” value was -0.0513. With AAACATGC the “PBM E-score” value was -0.0353. With AGTAACGC the “PBM E-score” value was -0.119. TAATTACA was tested, and the “PBM E-score” value was 0.107. For AAAGTTTA, the “PBM E-score” value was 0.172. In the case of GATGAAAC, the “PBM E-score” value is reported as -0.0473. CGGGCGCA was tested, and the “PBM E-score” value was -0.113. For ATCGAAAA, the “PBM E-score” value was 0.0262. For GCGTCACC, the “PBM E-score” value was -0.162. With CAGAAACG the “PBM E-score” value was 0.0904. With AACCTTCC the “PBM E-score” value was -0.283. With CTGAAATA the “PBM E-score” value was 0.202. With AAAGTACC the “PBM E-score” value was 0.2. TATAGAAA was tested, and the “PBM E-score” value was 0.0717. AGACCGTC was tested, and the “PBM E-score” value was -0.148. CCTCCGCG was tested, and the “PBM E-score” value was -0.073. For ACATAGGC, the “PBM E-score” value was 0.0383. With ATAGCCAC the “PBM E-score” value was 0.00714. With CCGATGTA the “PBM E-score” value was 0.0813. In the case of CTTCTACC, the “PBM E-score” value is reported as -0.129. CTGCGGGC was tested, and the “PBM E-score” value was -0.208. For CTGCGGCC, the “PBM E-score” value was -0.0276. With GTTCGCAA the “PBM E-score” value was 0.122. ACTATAGT was tested, and the “PBM E-score” value was 0.113. AATATCAG was tested, and the “PBM E-score” value was 0.196. For CAGTCGTA, the “PBM E-score” value was -0.0822. In the case of GAAGTACC, the “PBM E-score” value is reported as -0.0435. With GTCTCGCA the “PBM E-score” value was 0.0474. In the case of GGCCCCCC, the “PBM E-score” value is reported as -0.421. In the case of GAAATAGA, the “PBM E-score” value is reported as -0.0139. With ACAACACC the “PBM E-score” value was 0.0364. In the case of AATCGGGT, the “PBM E-score” value is reported as 0.176. For CTTAAAAC, the “PBM E-score” value was 0.196. For CATTAAAG, the “PBM E-score” value was 0.0284. CGCTAGAC was tested, and the “PBM E-score” value was -0.0952. In the case of CGCCGGCG, the “PBM E-score” value is reported as 0.204. In the case of CACCAACG, the “PBM E-score” value is reported as 0.185. AAAGCTAC was tested, and the “PBM E-score” value was -0.161. In the case of CTCCTCTA, the “PBM E-score” value is reported as -0.208. For GCATTCGA, the “PBM E-score” value was 0.0535. For CAGCAAAA, the “PBM E-score” value was 0.0953. CCCCCGCG was tested, and the “PBM E-score” value was -0.363. TCGTCTCA was tested, and the “PBM E-score” value was 0.0221. With CTCTTACC the “PBM E-score” value was 0.0706. AAATTTCG was tested, and the “PBM E-score” value was 0.166. AGCAGCCT was tested, and the “PBM E-score” value was -0.19. With GGGTAAAA the “PBM E-score” value was 0.145. In the case of CCGTAAAA, the “PBM E-score” value is reported as 0.0607. In the case of CTTGCCCA, the “PBM E-score” value is reported as 0.0297. For GACGGAAA, the “PBM E-score” value was 0.106. For ACACGGGG, the “PBM E-score” value was -0.0186. For AGGAAACC, the “PBM E-score” value was -0.133. For AGTCAGTG, the “PBM E-score” value was -0.0432. For AATGAGAG, the “PBM E-score” value was -0.161. With AACACTGT the “PBM E-score” value was -0.00322. In the case of CCGCGGAC, the “PBM E-score” value is reported as 0.123. For ATTGGCCC, the “PBM E-score” value was -0.124. With AACTTAAA the “PBM E-score” value was 0.195. In the case of ATACTACA, the “PBM E-score” value is reported as 0.213. In the case of CACCAGCG, the “PBM E-score” value is reported as -0.152. AACGTTTC was tested, and the “PBM E-score” value was 0.0583. With GGACGACA the “PBM E-score” value was 0.236. In the case of CGCAGAAA, the “PBM E-score” value is reported as 0.0619. For GGTAGTGA, the “PBM E-score” value was -0.0547. CAGTAAAG was tested, and the “PBM E-score” value was -0.152. GCAGCGAA was tested, and the “PBM E-score” value was 0.0208. With AGGAACAG the “PBM E-score” value was -0.168. With CTACAGAC the “PBM E-score” value was -0.0345. For ATTCTAGG, the “PBM E-score” value was 0.155. For ATCCTAAT, the “PBM E-score” value was -0.0206. With ACCCAGCA the “PBM E-score” value was -0.111. ATCATCTA was tested, and the “PBM E-score” value was -0.045. For CATTGGCG, the “PBM E-score” value was -0.24. With ATAGTGAC the “PBM E-score” value was -0.0106. CCTTGTTC was tested, and the “PBM E-score” value was -0.169. For CACCCAGA, the “PBM E-score” value was 0.00561. With CAAGAACG the “PBM E-score” value was 0.0575. For ATGGTTGC, the “PBM E-score” value was -0.269. For ATGACGTA, the “PBM E-score” value was 0.145. For ATCAAATA, the “PBM E-score” value was 0.0651. ATGTTTTC was tested, and the “PBM E-score” value was 0.172. GATGTGCA was tested, and the “PBM E-score” value was -0.0778. In the case of ATACCTGC, the “PBM E-score” value is reported as -0.243.
